According to patent US20230203482A1, “Methods of Rescuing Stop Codons via Genetic Reassignment with ACE-tRNA” (THE WISTAR INSTITUTE OF ANATOMY AND BIOLOGY, priority 2017, published 2023):

B1: Glychr19.trna2: top performing glycine ACE-tRNA UGA suppressor, SEQ ID NO: 53 (nucleic acid)
chain: GCGTTGGTGGTATAGTGGTTAGCATAGCTGCCTTCAAAGCAGTTGACCCGGGTTCGATTCCCGGCCAACGCA
modifications: chemistry not fully specified

Experiments:
NLuc-UGA PTC = assay: NanoLuc nonsense reporter screen (all-in-one HTC plasmid), TGA/UGA PTC, HEK293 cells; assay type: cell-based, human; details: transiently transfected HEK293 cells
Excerpt: Several different nonsense mutations cause CF, thus underlying roughly 10% of all CF disease. FIG. 7. These cases are concentrated into […] specific genetic lesions: E60X, R75X, G542X, R553X, Q890X, Y1092X, R1158X, R1162X and W1282X. A screen was developed to screen existing human tRNA sequences for modification and tolerance to anti-codon editing. To this end, roughly 144 ACE-tRNAs were candidates to test for those that could be used to promote the repair of the disease causative nonsense codon and the expression of the full-length protein. Specifically, using the scheme described in FIG. 11, tRNA libraries were generated to identify novel tRNA sequences that encode for ACE tRNA with the ability to repair the top CF causative nonsense mutations. Specifically, 10 ng of annealed oligos encoding the ACE-tRNAs were combined with 50 ng of NanoLuc reporter plasmid, 1 μl 10×CutSmart Buffer (NEB), 1 μl T4 ligase (NEB), 10 mM ATP and 1 μl BbsI (NEB) and cycled in a thermocycler as described in FIG. 11. 1 μl of the reaction was transformed into competent E. coli and the transformants were plated on ampicillin agar plates. […]
Screening studies were first performed to identify the best ACE-tRNA Candidates from tryptophan and glycine. […] Plates were read on a SpectraMax i3 (Molecular Devices). […]

[1] = tested on: NLuc-UGA stably expressed in HEK293 cells; assay: PTC suppression in HEK293 cells stably expressing NLuc-UGA (cDNA or RNA delivery, versus aminoglycosides); assay type: cell-based, human; details: for rescue of stably expressed NLuc-UGA by ACE-tRNA delivered as RNA versus cDNA: RNA transcripts transfected with lipofectamine 2000; for suppression of stably expressed NLuc-UGA compared with gentamicin and G418: gentamicin 40 μM, G418 140 μM (150 uM in FIG. 32), 24 or 48 hours
Description: In vitro tRNA transcription. […] Equimolar concentration of T7 oligo (5)-taatacgactcactata-3′) was annealed to ACE-tRNA PAGE-purified Ultramers (20 ug; Integrated DNA Technologies, Coralville, Iowa) coding for the ACE-tRNA and preceded by a T7 promoter (italics). Importantly, the three terminal nucleotides containing CCA were included (bold).
The total reaction volume was adjusted to 100 μl and the kit reagents were added in the following amounts: 10 μl of 10X T7-Scribe transcription buffer, 7.5 μl of each nucleotide (100 mM stocks), 10 μl of 100 mM Dithiothreitol, 2.5 μl ScriptGuard RNase Inhibitor, 10 μl T7-Scribe enzyme solution. After the reaction was incubated for 4-5 hours at 37° C., the DNA template was digested with 5 μl DNase (1 U/μl) provided with the kit for 30-60 min. The ACE-tRNA was extracted from the reaction with acidic phenol chloroform (5:1, pH 4.5) and precipitated with ethanol. The precipitates ACE-tRNA was pelleted, washed, dried and resuspended in 100 μl DEPC-treated water and further purified with Chrorna Spin-30 columns (Clontech, USA). The procedure yielded roughly 100 μl of ˜5 μg/μl ACE-tRNA. ACE-tRNAs were re-pelleted in 20 ug aliquots, washed, lyophilized and stored at −80° C. until use. All results were generated from ≥2 ACE-tRNA preparations.
Generation of stable N Luc reporter cell lines.
RNA transfection. […] 16-24 hours later the cells were transfected with ACE-tRNAs using lipofectamine 2000 (ThermoFisher Scientific, USA). Briefly, 3 μg of ACE-tRNA were suspended in 1500 of OptiMEM and 120 of Lipofectamine 2000 was mixed with 150 μl of OptiMEM. The volumes were combined, thoroughly mixed and incubated for 10 mins at RT. 75 μl of the transfection complex was added to each well. PTC suppression by ACE-tRNA transcripts was quantified as described above.
The in vivo activity and stability of ACE-tRNA was examined. The NLuc-UGA PTC reporter cDNA was delivered together with a plasmid encoding four copies of the ACE-tRNA^Arg UGA or an ‘empty vector control’ into mouse skeletal muscle (tibialis anterior) using electroporation (Wheeler et al., 2009, Science, 325, 336-339; Wheeler et al., 2007, J Clin Invest, 117, 3952-3957; Muthumani et al., 2017, Cancer Immunol Immunother, 66, 1577-1588). […] The signal from the NLuc-UGA plasmid and non-electroporated muscle was undetectable. Further, ACE-tRNA^Arg suppression activity was stable, as evidenced by the similar duration of NLuc activity between rescued and WT protein, FIG. 34B. Furthermore, this duration and intensity of luciferase expression argues in favor of a high in vivo tolerability and negligible repercussion of increased readthrough observed with ACE-tRNA^Arg. […]

Molecule | stop codon selectivity (NanoLuc TGA, TAA or TAG reporter) (NLuc-UGA PTC; listed as ACE-tRNA^Trp) | rescue of stably expressed NLuc-UGA by ACE-tRNA delivered as RNA versus cDNA [1] | suppression of stably expressed NLuc-UGA compared with gentamicin and G418 [1] | stop codon selectivity (NanoLuc TGA, TAA or TAG reporter) (NLuc-UGA PTC; listed as ACE-tRNA^Gly) | suppression of stably expressed NLuc-UGA compared with gentamicin and G418 ([1]; listed as ACE-tRNA^Gly)
Trpchr17.trna39: top performing tryptophan ACE-tRNA UGA suppressor, SEQ ID NO: 48 | retained selectivity for the UGA stop codon, over UAA and UAG | comparable fold rescue when delivered as small RNA | exceeded PTC rescue compared to G418 |  | 
B1 |  | comparable fold rescue when delivered as small RNA |  | retained selectivity for the UGA stop codon, over UAA and UAG | outperformed the conventional small molecule suppressors gentamicin (40 μM) and G418 (140 μM); also recorded: outperforms both gentamicin (40 uM) and G418 (140 uM)

“Also recorded” adds a separate entry of the source.
